This sample is rich in variants without activity.
B1: TPR 5TU (parent)
chain: GGAUCUUCUCGAUCUAACAAAAAAGACAAAUCUGCCACAAAGCUUGAGAGCAUCUUCGGAUGCAGAGGCGGCAGCCUUCGGUGGCGCGAUAGCGCCAACGUUCUCAACUAUGACACGCAAAACGCGUGCUCCGUUGAAUGGAGUUUAUCAUG

Variants of: B1
Test: polymerase ribozyme fitness, log enrichment relative to wild type (log ratio); higher = more active; in vitro selection for triplet polymerase activity
Outline: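 To select mutant libraries of each subunit of a heterodimeric triplet polymerase ribozyme, built by PCR and transcribed, each was annealed with a biotinylated primer, partner subunit and triplets, then incubated frozen at −7 °C. Extended constructs were gel-excised, captured on streptavidin beads and amplified by RT-PCR, in one round carried out in triplicate. Illumina sequencing of input and output libraries kept genotypes with ≥10 input reads and ≥1 read per output. Fitness is the base-2 logarithm of genotype enrichment relative to wild-type enrichment, from inverse-variance-weighted replicate averages.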

| Variant | polymerase ribozyme fitness (log ratio) |
| --- | --- |
| GGAUCUUCUCGAUCUAACAAAAAAGAAAAAUCUGCCACAAAGCUUGAGAGCAUCUUCGGAUGCAGAGGCGGCCGCCUUCGGUGGCGCGAUAGCGCUAACGUUCUCAACUAUGACACGCAAAACGCGUGCUCCGUUGAAUGGCGUUUAUCAUG | ≤ -4.2 |
| GGAUCUUCUCGAUCUAACAAAAAAGAAAAAUCUGCCACAAAGCUUGAGAGCAUCUUCGGAUGCAGAGGCGGCAGCCUUCGGUGGCGCGCUAGAGCCAACGUUCUCAACUAUGACGCGCAAAACGCGUGCUCCGUUGAAUGGAGUUUAUCAUG | ≤ -4.2 |
| GGAUCUUCUCGAUCUAACAAAAAAGAAAAAUCUGCCACAAAGCUUGAGAGCAUCUUCGGAUGCAGAGGCGGCAGCCUUCGGUGGCGCGAUGGCGCCAACGUUCUCAACUAUGACACGCAAAACGCGUGCUCCGUUGAAUGGAGUUUAUCAUG | ≤ -4.2 |
| GGAUCUUCUCGAUCUAACAAAAAAGAAAAAUCUGCCACAAAGCUUGAGAGCAUCUUCGGAUGCAGAGGCGGCAGCCUUCGGUGGCGCGAUAGCGCCAACGUUCUCCACUAUGUCACGCAAAACGAGUGCUCCGUUGAAUGGAGUUUAUCAUG | ≤ -4.2 |
| GGAUCUUCUCGAUCUAACAAAAAAGAAAAAUCUGCCACAAAGCUUGAGAGCAUCUUCGGAUGCAGAGGCGGCAGCCUUCGGUGGCGCGAUAGCGCCAACGUUCUCAACUAUGACACGCAAAACGCGUGCUCCGUUGAAUGGCGUUUAUCAUG | ≤ -4.2 |
| GGAUCUUCUCGAUCUAACAAAAAAGAAAAAUGUGCCAUAAAGCUUGAGAGCAUCUUCGGAUGCAGCGGCGGCAGCCUUCGGUGGCGCGAUUGCGCCAAGGUUCUCAACUAUGACACGCAAAACGCGUGCUCCGUUGAAUGGAGUUUAUCAUG | ≤ -4.2 |
| GGAUCUUCUCGAUCUAACAAAAAAGAAAAAUUUGCCACAAAGCUUAAGAGCAUCUUCGGAUGCAGAGGCGGCAGCCUUCGGUGGCUCGAUAGCGCCAACGUUCUAAACUAUGACACGCAAAACGCGUGCUCCGUUGAAUGGAGUUUAUCAUG | ≤ -4.2 |
| GGAUCUUCUCGAUCUAACAAAAAAGAAAAAUCUGCGACAAAGCUUGAGAGCAUCUGUGGAUGCAGAGGCGGCAGCCUUCGGUAGCGCGAUAGCGCCAACGUUCUCAACUAUGACACGCAAAACGCGUGCUCCGUUGAAUGGAGUUUAUCAUG | ≤ -4.2 |
| GGAUCUUCUCGAUCUAACAAAAAAGAAAAAUCUGCUACAAAGCUUGAGAGCAUCUUCGGAUGCAGAGGCGGCAGCCUUCGGUGGCGGGAUAGCGCCAACGUUCUCAACUAUGACACGCAAAACGCCUGCUCCGUUGAAUGGAGUUUAUUAUG | ≤ -4.2 |
| GGAUCUUCUCGAUCUAACAAAAAAGAAAAAUCUGCCAUAAAGCUUGAGAGCAUCUUCGGAUGCAGAGGCGGCAGCCUUCGAUGGCUCGAUAGCGCCAACGUUCUCAACUUUGACACGCAAAACGCGUGCUCCGUUGAAUGGAGUUUAUCAUG | ≤ -4.2 |
| GGAUCUUCUCGAUCUAACAAAAAAGAAAAAUCUGCCACAAAGCUUGAGAGCAUAUUCGGAUGCAGAGGCGGCAGCCUUCGGUGGCGCGAUAGCGUCAACGUUCUCAACUAUGACACGCAAAACGCGUGCUCCGUUGAAUGGAGUUUAUCAUG | ≤ -4.2 |
| GGAUCUUCUCGAUCUAACAAAAAAGAAAAAUCUGCCACAAAGCUUGAGAGCAUAUUCGGAUGCAGAGGCGGCAGCCUUCGGUGGCGCGAUAGCGCGAACGUUCUCAACUAUGACACACAAAACGCGUGCCCCGUUGAAUGGAGUUUAUCAUG | ≤ -4.2 |
| GGAUCUUCUCGAUCUAACAAAAAAGAAAAAUCUGCCACAAAGCUUGAGAGCAUGUUCGGAUGCAGAUGCGGCAGCCUUCGGUGCCGCGAUAGCGCCAACGUUCUCAACUAUGACACGCAAAACGCGUGCUCCGUUGAAUGGAGUUUAUCAUG | ≤ -4.2 |
| GGAUCUUCUCGAUCUAACAAAAAAGAAAAAUCUGCCACAAAGCUUGAGAGCAUUUUCGGAUGCAGAGGCGGCAGCCUUCGGUGGCGCGAUCGCCCCAACGUUCUCAACUAUGACACGCAAAACGCGUGCUCCGUUGAAUGGAGUUUAUCAUG | ≤ -4.2 |
| GGAUCUUCUCGAUCUAACAAAAAAGAAAAAUCUGCCACAAAGCUUGAGAGCAUCUUAGGAUGCAGGGGCGGCAGCCUUCGGUGGCUCGAGAGCGCCAACGUUCUCAACUAUGACACGCAAGACGCGUGCUCCGUUGAAUGGAGUUUAUCAUG | ≤ -4.2 |
| GGAUCUUCUCGAUCUAACAAAAAAGAAAAAUCUGCCACAAAGCUUGAGAGCAUCUUGGGAUGCAGAGGCGGCAGCCUUCGGUGGCGCGAUAGCGCCAACGUUCUCAACUAUGACACGCAAAACGCGUGCUCCGUUGAAUGGAGUUUAUCAUG | ≤ -4.2 |
| GGAUCUUCUCGAUCUAACAAAAAAGAAAAAUCUGCCACAAAGCUUGAGAGCAUCUUCGGAUGCAGAGGCGGCAGCCUUCGGUGGAGCGAUAGGGCGAACGUUCUCAACUAUGACACGCAAAACGCGUGCUCCGUUGAAUGGAGUUUAUCAUG | ≤ -4.2 |
| GGAUCUUCUCGAUCUAACAAAAAAGAAAAAUCUGCCACAAAGCUUGAGAGCAUCUUCGGAUGCAGAGGCGGCAGCCUUCGGUGGAUCGAUCGCGCCAACGAUCUCAACUAUGACACGGAAAACGCGUGCUCCGUUGAAUGGAGUUUAUCAUG | ≤ -4.2 |
| GGAUCUUCUCGAUCUAACAAAAAAGAAAAAUCUGCCACAAAGCUUGAGAGCAUCUUCGGAUGCAGAGGCGGCAGCCUUCGGUGGUGCGAUAGCGCAAACGUUCUCAACUAUGAUACGCGAAACGCGUGCUCCGUUGAAUCGAGUUUAUCAUG | -4.07 |

From the RNAGym collection of RNA variant scans (doi:10.1073/pnas.2313332121)
